# Several values for one entry are separate records, joined by “and”; a condition that tells them apart may be missing. Equal entries are not always repeated. This list was built around the results that the source calls inconclusive (neither active nor inactive); the mix of calls is not that of the screen. Where the call is inconclusive, the potency comes from a doubtful curve fit. Activity calls are given as the source filed them. Unless noted, calls come from the whole dose curve; as a rule, active = well fitted curve in the direction sought with a large enough effect in the repeat runs; inconclusive = weak or mixed curves; inactive = no such curve, though single readings can be large; an effect the other way counts as inactive or inconclusive.
# Key:
# [1] = qHTS assay to identify small molecule antagonists of the peroxisome proliferator-activated receptor gamma (PPARg) signaling pathway - cell viability counter screen (AID 743194); settings: PPARg-bla HEK293H viability, CellTiter-Glo luminescence, 17 h; Potency: co-treated with 50 nM rosiglitazone unless noted; activity change, negative = cytotoxicity: at 62.6 µM (top of the series), co-treated with 50 nM rosiglitazone unless noted; note: nearly all actives have a fitted effect of over 55% in size
# Outline: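 Viability was measured as CellTiter-Glo luminescence in GeneBLAzer PPARg UAS-bla HEK293H cells. These cells had been exposed 17 h at 37 C to compounds together with rosiglitazone at 50 nM final, with the beta-lactamase readout taken in the same wells.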
# [2] = qHTS assay for small molecule agonists of the antioxidant response element (ARE) signaling pathway (AID 743202; active = well fitted activation curve with a large enough effect in the signal ratio in the repeat runs, not every such curve was filed as active; inconclusive = weak or mixed curves, or effect the other way; inactive = no such curve, though single readings can be large or run the other way; the % refers to the signal ratio; for activation: % is set by controls: 0 for no effect and ±100 for the full control effect); settings: HepG2 ARE-bla reporter, beta-lactamase FRET, 16 h; activation: at 73.3 µM (top of the series) unless noted
# Outline: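 An ARE-responsive beta-lactamase gene stably integrated in HepG2 cells serves as reporter. After 5 h plating and 16 h compound incubation at 37 C, fluorescence of the B/G FRET substrate was measured.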
# [3] = qHTS assay for small molecule activators of the heat shock response signaling pathway - cell viability counter screen (AID 743209); settings: HSE-bla HeLa viability, CellTiter-Glo luminescence, 5 h; activity change, negative = cytotoxicity: at 62.6 µM (top of the series) unless noted; note: nearly all actives have a fitted effect of over 50% in size
# Outline: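 First, HSE-bla HeLa cells were seeded at 1500 cells/well and kept overnight at 37 C. Next, compounds were pinned in and incubated 5 h. After the FRET substrate step, CellTiter-Glo was added and luminescence read 30 min later.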
# [4] = qHTS assay for small molecule activators of the heat shock response signaling pathway (AID 743210; active = well fitted activation curve with a large enough effect in the signal ratio in the repeat runs, with a control signal flat, not every such curve was filed as active; inconclusive = weak or mixed curves; the % refers to the signal ratio); settings: HeLa HSE-bla reporter, beta-lactamase ratio, 5 h; activation: at 62.6 µM (top of the series) unless noted
# Outline: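 In HSE-bla HeLa cells, 5 h compound incubation (37 C) precedes addition of LiveBLAzer B/G substrate; after 2.5 h at room temperature, fluorescence intensity indicates reporter induction.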
# [5] = biological target: Peroxisome proliferator-activated receptor delta (Homo sapiens) (UniProt Q03181); assay: qHTS assay to identify small molecule agonists of the peroxisome proliferator-activated receptor delta (PPARd) signaling pathway (AID 743212; calls by dose curve; for activation: % is set by controls: 0 for no effect and ±100 for the full control effect); settings: HEK293H PPARd-UAS-bla, beta-lactamase FRET ratio, 17 h; activation: at 62.6 µM (top of the series) unless noted
# Outline: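 HEK293H UAS-bla reporter cells, human PPARd system; compounds delivered in DMSO after 5 h plating, then at 37 C. Beta-lactamase FRET read, 2 h RT substrate step.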
# [6] = qHTS assay to identify small molecule antagonists of the peroxisome proliferator-activated receptor delta (PPARd) signaling pathway - cell viability counter screen (AID 743213); settings: PPARd-bla HEK293H viability, CellTiter-Glo luminescence, 17 h; viability change, negative = cytotoxic: at 62 µM (top of the series) unless noted; note: nearly all actives have a fitted effect of over 50% in size
# Outline: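 PPARd-bla HEK293H cells were treated with compounds plus agonist L165041 (300 nM final) for 17 h at 37 C. Viability was then read in the same wells by CellTiter-Glo luminescence after 30 min at room temperature.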
# [7] = biological target: Bile acid receptor (Homo sapiens) (UniProt Q96RI1); assay: qHTS assay to identify small molecule antagonists of the farnesoid-X-receptor (FXR) signaling pathway (AID 743217; active = well fitted inhibition curve with a large enough effect in the signal ratio in the repeat runs, not every such curve was filed as active; inconclusive = weak or mixed curves, or effect the other way; inactive = no such curve, though single readings can be large or run the other way; the % refers to the signal ratio; for activity change, negative = inhibition: % is set by controls: 0 for no effect and ±100 for the full control effect); settings: HEK293T FXR-UAS-bla, beta-lactamase ratio, CDCA-stimulated, 16 h; activity change, negative = inhibition: at 62.6 µM (top of the series) unless noted
# Outline: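 Antagonist mode against 50 uM (final) chenodeoxycholic acid stimulation in FXR-bla HEK 293T cells, 16 h at 37 °C. Inhibition detected as reduced beta-lactamase activity via LiveBLAzer B/G FRET fluorescence after 2 h at room temperature.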
# [8] = qHTS assay for small molecule agonists of the antioxidant response element (ARE) signaling pathway - cell viability counter screen (AID 743203; calls by dose curve; note: nearly all actives have a fitted effect of over 55% in size); settings: ARE-bla HepG2 viability, CellTiter-Glo luminescence, 16 h; viability change, negative = cytotoxic: at 73.3 µM (top of the series)
# Outline: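 Seeded at 2,000 cells/well, ARE-bla HepG2 cells were incubated 5 hrs before compound addition. After 16 hrs of treatment at 37C with 5% CO2, CellTiter-Glo reagent was added and luminescence read 30 min later.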
# [9] = qHTS assay to identify small molecule agonists of the peroxisome proliferator-activated receptor delta (PPARd) signaling pathway - cell viability counter screen (AID 743211); settings: PPARd-bla HEK293H viability, CellTiter-Glo luminescence, 17 h; activity change, negative = cytotoxicity: at 62.6 µM (top of the series); note: nearly all actives have a fitted effect of over 55% in size
# Outline: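 HEK293H PPARd-bla, 3000 cells/well; 5 h preincubation 37C/5% CO2; cpd in DMSO, 17 h 37C; B/G FRET substrate 2 h RT; CellTiter-Glo 30 min RT, luminescence.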
# [10] = biological target: Peroxisome proliferator-activated receptor delta (Homo sapiens) (UniProt Q03181); assay: qHTS assay to identify small molecule antagonists of the peroxisome proliferator-activated receptor delta (PPARd) signaling pathway (AID 743215; active = well fitted inhibition curve with a large enough effect in the signal ratio in the repeat runs, not every such curve was filed as active; inconclusive = weak or mixed curves, or effect the other way; inactive = no such curve, though single readings can be large or run the other way; the % refers to the signal ratio;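 note: cells stimulated with agonist L165041 at 300 nM final during compound exposure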; for ratio activity, negative = inhibition: % is set by controls: 0 for no effect and ±100 for the full control effect); settings: HEK293H PPARd-UAS-bla, beta-lactamase FRET ratio, antagonist, 17 h; ratio activity, negative = inhibition: at 62 µM (top of the series) unless noted
# Outline: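 Inhibition of L165041-driven (300 nM final) PPARd signaling is scored in HEK293H UAS-bla cells. Exposure lasts 17 h at 37 C; beta-lactamase activity is then read by FRET substrate fluorescence after 2 h at room temperature.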
# Potency is the fitted concentration of half-maximal effect; tags give direction and shape of the fitted curve or compound fluorescence and quenching.
# UniProt Q96RI1, sequence (Q96RI1 whole entry, looked up): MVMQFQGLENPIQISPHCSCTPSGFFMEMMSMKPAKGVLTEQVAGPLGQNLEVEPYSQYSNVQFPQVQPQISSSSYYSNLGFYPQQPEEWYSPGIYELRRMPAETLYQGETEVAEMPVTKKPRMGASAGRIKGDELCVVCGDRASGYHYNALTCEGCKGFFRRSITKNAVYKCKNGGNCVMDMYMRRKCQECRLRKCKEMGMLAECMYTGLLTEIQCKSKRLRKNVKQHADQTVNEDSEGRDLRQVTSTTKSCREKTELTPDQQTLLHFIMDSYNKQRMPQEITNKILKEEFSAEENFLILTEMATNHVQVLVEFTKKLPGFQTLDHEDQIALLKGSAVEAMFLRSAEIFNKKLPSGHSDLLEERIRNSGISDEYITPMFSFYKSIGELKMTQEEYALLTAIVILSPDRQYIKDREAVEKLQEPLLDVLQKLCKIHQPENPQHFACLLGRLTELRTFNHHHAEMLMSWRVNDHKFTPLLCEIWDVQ
# UniProt Q03181, sequence (Q03181 whole entry, looked up): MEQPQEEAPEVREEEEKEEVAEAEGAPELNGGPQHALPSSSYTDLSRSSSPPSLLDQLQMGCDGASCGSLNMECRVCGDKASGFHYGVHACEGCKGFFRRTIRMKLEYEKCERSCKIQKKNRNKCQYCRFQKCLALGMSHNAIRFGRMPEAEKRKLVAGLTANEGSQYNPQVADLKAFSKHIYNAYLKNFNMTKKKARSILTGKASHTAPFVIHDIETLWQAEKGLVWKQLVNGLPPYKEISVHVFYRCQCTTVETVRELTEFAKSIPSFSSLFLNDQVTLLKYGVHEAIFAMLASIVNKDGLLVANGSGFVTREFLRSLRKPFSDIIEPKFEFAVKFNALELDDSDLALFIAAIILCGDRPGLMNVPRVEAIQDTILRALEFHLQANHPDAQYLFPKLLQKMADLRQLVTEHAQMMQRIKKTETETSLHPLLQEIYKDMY
Compound,Potency [1],Potency [2],Potency [3],Potency [4],Potency [5],Potency [6],Potency [7],Potency [8],Potency [9],Potency [10],"activity change, negative = inhibition [7]",activation [2],activation [5]
CCC[CH2][Sn]([CH2]CCC)([CH2]CCC)[CH2]CCC,active: 19.5 µM,"inconclusive: 15.4 µM [falling, full curve]","inconclusive: 17.4 µM [cytotoxic, partial curve]",inconclusive: 37.4 µM,"inconclusive: 3.89 µM [rising, full curve]",inconclusive: 43.6 µM [cytotoxic],inconclusive: 54.9 µM [partial curve],,,,,,
O=[N+]([O-])c1ccc(F)c([N+](=O)[O-])c1,"inconclusive: 24.8 µM [cytotoxic, full curve, poor fit]","inconclusive: 49 µM [falling, partial curve]",,"inconclusive: 55.5 µM [falling, partial curve, poor fit]",,"inconclusive: 6.98 µM [cytotoxic, full curve, poor fit]",,active: 30.9 µM,"inconclusive: 17.5 µM [cytotoxic, partial curve]",inactive,,,
[F][Sn]([c]1ccccc1)([c]1ccccc1)[c]1ccccc1,active: 0.616 µM,"inconclusive: 1.72 µM [falling, full curve]","inconclusive: 2.45 µM [cytotoxic, full curve, poor fit]",inconclusive: 16.1 µM,,active: 0.977 µM,"inconclusive: 3.47 µM [rising, partial curve]",,,,,,
CCOP(=S)(OCC)SCn1nnc2ccccc2c1=O,active: 43.6 µM,active: 3.06 µM,,inconclusive: 16.4 µM,"inconclusive: 54.9 µM [rising, partial curve, poor fit]",active: 54.9 µM,"inconclusive: 54.9 µM [rising, partial curve]","inconclusive: 68.6 µM [cytotoxic, single point]","inconclusive: 49 µM [cytotoxic, partial curve, poor fit]",,,,
O=C1C2(Cl)C3(Cl)C4(Cl)C(Cl)(Cl)C5(Cl)C3(Cl)C1(Cl)C5(Cl)C24Cl (configuration not stated),"active: 38.3 µM and inconclusive: 52.6 µM [cytotoxic, single point]",inconclusive: 67.5 µM and inconclusive: 65.7 µM,"active: 48.2 µM and inconclusive: 52.6 µM [cytotoxic, single point]",inconclusive: 53 µM and inconclusive: 50.7 µM,inconclusive: 54 µM,,inconclusive: 54 µM and inconclusive: 46.9 µM [partial curve],,active: 48.2 µM and active: 46.9 µM,"inconclusive: 52.6 µM [inhibitor, single point]",,,
N#CCCC(Br)(C#N)CBr (configuration not stated),"inconclusive: 49 µM [cytotoxic, partial curve, poor fit]",inconclusive: 68.6 µM,active: 49 µM,inconclusive: 47.1 µM,,"inconclusive: 54.9 µM [cytotoxic, partial curve]",,,,,inconclusive: -33.4%,,
O=S1OC[C@@H]2[C@H](CO1)[C@]1(Cl)C(Cl)=C(Cl)[C@@]2(Cl)C1(Cl)Cl (some centres not stated),"inconclusive: 30.9 µM [cytotoxic, partial curve, poor fit]","inconclusive: 61.1 µM [rising, single point]","inconclusive: 54.9 µM [cytotoxic, single point]",inconclusive: 43.6 µM,,,,,"inconclusive: 54.9 µM [cytotoxic, single point]",,,,
COc1ccc(C(c2ccc(OC)cc2)C(Cl)(Cl)Cl)cc1,"inconclusive: 17.3 µM [cytotoxic, full curve, poor fit]",inconclusive: 43 µM,"inconclusive: 34.4 µM [cytotoxic, partial curve, poor fit]",inconclusive: 26.7 µM,inconclusive: 34.2 µM,,,,inconclusive: 61.3 µM [cytotoxic],"inconclusive: 0.0192 µM [rising, full curve, poor fit]",,,
CCOC(=O)CC(=O)CCl,"inconclusive: 0.174 µM [cytotoxic, full curve, poor fit]",,"inconclusive: 49 µM [cytotoxic, single point]",inconclusive: 45.3 µM,,,,,,,,inconclusive: 6.64%,
[Cl][Hg][c]1ccccc1,active: 0.776 µM,"inconclusive: 2.17 µM [falling, full curve]",active: 3.09 µM,inconclusive: 3.74 µM,"inconclusive: 4.36 µM [falling, full curve]",,"inconclusive: 0.977 µM [rising, partial curve]",,,"inconclusive: 1.95 µM [cytotoxic, full curve]",,,
Oc1cc(Cl)c(Cl)c(Cl)c1,active: 13.1 µM,inconclusive: 9.19 µM,"inconclusive: 36.9 µM [cytotoxic, partial curve]",inconclusive: 58.5 µM,,"inconclusive: 52.1 µM [cytotoxic, single point]",inconclusive: 52.1 µM [fluorescent],,,,,,
O=C1c2ccccc2C(=O)C1C(=O)C(c1ccccc1)c1ccc(Cl)cc1 (configuration not stated),active: 11 µM,"inconclusive: 68.6 µM [falling, single point]","inconclusive: 11 µM [cytotoxic, partial curve, poor fit]",inconclusive: 32.1 µM,,,,,active: 24.5 µM,inconclusive: 43.6 µM [partial curve],,,
CC1CCC(C(C)C)C(OC(=O)c2ccccc2N)C1 (configuration not stated),"inconclusive: 54.2 µM [cytotoxic, single point] [setting not given]","inconclusive: 67.6 µM [rising, partial curve, poor fit]","inconclusive: 54.2 µM [cytotoxic, single point]",inconclusive: 56.3 µM,,"inconclusive: 54.2 µM [cytotoxic, single point]","inconclusive: 38.4 µM [rising, partial curve, poor fit]",,,"inconclusive: 54.2 µM [inhibitor, single point]",,,inconclusive: 11.4%
c1ccc2c(c1)Sc1ccccc1N2CC1CN2CCC1CC2 (configuration not stated),active: 26.6 µM,"inconclusive: 26.6 µM [falling, partial curve]","inconclusive: 29.8 µM [cytotoxic, partial curve]",inconclusive: 33.5 µM [single point],"inconclusive: 9.44 µM [rising, partial curve]",active: 9.44 µM,"inconclusive: 33.5 µM [cytotoxic, single point]",,,,,,
CC1(C)CN=C(NN=C(/C=C/c2ccc(C(F)(F)F)cc2)/C=C/c2ccc(C(F)(F)F)cc2)NC1,active: 9.77 µM,"inconclusive: 17.2 µM [falling, full curve]",active: 24.5 µM,inconclusive: 18.1 µM [cytotoxic],inconclusive: 24.5 µM,,active: 19.5 µM,,active: 7.76 µM,"inconclusive: 38.9 µM [cytotoxic, partial curve]",,,
Oc1ccc2ccc3cccc4ccc1c2c34,"inconclusive: 30.9 µM [cytotoxic, partial curve, poor fit]","inconclusive: 24.3 µM [rising, partial curve, poor fit]",inactive,inconclusive: 50.9 µM [activator],inconclusive: 27.5 µM,"inconclusive: 49 µM [cytotoxic, partial curve, poor fit]",,,,,,,
CCCCCCCCCC[N+](C)(C)CCCCCCCCCC,active: 15.5 µM,"inconclusive: 68.6 µM [falling, single point]",active: 34.7 µM,inconclusive: 52.9 µM,inconclusive: 61.6 µM [single point],active: 19.5 µM,"inconclusive: 61.6 µM [cytotoxic, single point]",,,"inconclusive: 61.6 µM [cytotoxic, single point]",,,
CC(=O)[O][Hg][c]1ccccc1,active: 686 nM and active: 309 nM and active: 1.88 µM,"inconclusive: 680 nM [falling, full curve] and inconclusive: 433 nM [falling, full curve] and inconclusive: 944 nM [falling, full curve]",active: 1.22 µM and active: 1.1 µM and active: 2.11 µM,inconclusive: 1.72 µM and inconclusive: 1.49 µM and inconclusive: 4.38 µM,inconclusive: 2.43 µM [full curve] and inconclusive: 1.95 µM [full curve] and inconclusive: 6.68 µM [full curve],active: 1.53 µM and active: 1.1 µM and active: 1.68 µM,active: 0.776 µM,,,"inconclusive: 5.45 µM [cytotoxic, full curve] and inconclusive: 1.23 µM [inhibitor, full curve] and inconclusive: 5.96 µM [cytotoxic, partial curve, poor fit]",,,

# — PubChem BioAssay (Tox21)
